The supplement of paper PMC12067230
This is a noisy data set.

Experiment: amyloid nucleation score relative to library mode (yeast Sup35 reporter selection) (log enrichment difference); higher = more amyloid nucleation; sequences are the first 22 residues of the Bri2 peptide extended by up to 12 random residues
Conditions: random library (experiment): 1;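 active = nucleation score significantly above 0 at FDR 0.05; inactive = not significantly above 0 or absent from output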
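Also: [psi-pin-] Saccharomyces cerevisiae expressing SupN fusions, induced by 100 µM Cu2SO4, selected 7 d at 30 °C without adenine and uracil, scored by deep sequencing of output versus input.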

Sequence | amyloid nucleation score
EASNCFAIRHFENKFAVETLICLSRGNAFLRKTR | inactive
EASNCFAIRHFENKFAVETLICLSRKGGLTRYVP | inactive
EASNCFAIRHFENKFAVETLICLSRKKVFCVDLW | inactive
EASNCFAIRHFENKFAVETLICLSRLENGGGYGP | 1.99
EASNCFAIRHFENKFAVETLICLSRLNTFRSMAG | inactive
EASNCFAIRHFENKFAVETLICLSRLSFLVCHSR | inactive
EASNCFAIRHFENKFAVETLICLSRMPNVIRFLS | inactive
EASNCFAIRHFENKFAVETLICLSRSAHLYNV | inactive
EASNCFAIRHFENKFAVETLICLSRVQRSGKLVG | inactive
EASNCFAIRHFENKFAVETLICLSSFASACGSRK | 2.68
EASNCFAIRHFENKFAVETLICLSSLYSIVSTMG | inactive
EASNCFAIRHFENKFAVETLICLSSPLDSWLMGR | -0.317
EASNCFAIRHFENKFAVETLICLSSPVVTNALDK | inactive
EASNCFAIRHFENKFAVETLICLSSRGAMCGVLV | inactive
EASNCFAIRHFENKFAVETLICLSSSQHFLCRHS | inactive
EASNCFAIRHFENKFAVETLICLSSSYWSVNLLT | inactive
EASNCFAIRHFENKFAVETLICLSSVWVIMGRTV | inactive
EASNCFAIRHFENKFAVETLICLSSWLYLALAPI | inactive
EASNCFAIRHFENKFAVETLICLSSYVLGWHHRD | 2.48
EASNCFAIRHFENKFAVETLICLSTDVVQDLCWG | 4
EASNCFAIRHFENKFAVETLICLSTECTLCRYSG | 7.94

Sequence | amyloid nucleation score
EASNCFAIRHFENKFAVETLICLSVAMRTGWGLA | inactive
EASNCFAIRHFENKFAVETLICLSVATRIYYLDR | inactive
EASNCFAIRHFENKFAVETLICLSVCELRALRRE | inactive
EASNCFAIRHFENKFAVETLICLSVCGRGAWARE | 7.19
EASNCFAIRHFENKFAVETLICLSVGCSWLSEKM | 4.87
EASNCFAIRHFENKFAVETLICLSVGVRRHGS | inactive
EASNCFAIRHFENKFAVETLICLSVKDMCRCMMA | 6.51
EASNCFAIRHFENKFAVETLICLSVTSESSHALM | 2.33
EASNCFAIRHFENKFAVETLICLSVVTWM | 5.13
EASNCFAIRHFENKFAVETLICLSWCVPRPESR | 5.38
EASNCFAIRHFENKFAVETLICLSWDRIPKQRRE | inactive
EASNCFAIRHFENKFAVETLICLSWFYWKPIGKG | inactive
EASNCFAIRHFENKFAVETLICLSWKNQMVQTAS | inactive
EASNCFAIRHFENKFAVETLICLSWLKFLVCE | inactive
EASNCFAIRHFENKFAVETLICLSWSYHADSMAF | 2.87
EASNCFAIRHFENKFAVETLICLSWVHETLVTSG | inactive
EASNCFAIRHFENKFAVETLICLSYGDT | 4.41
EASNCFAIRHFENKFAVETLICLSYQVVSRISVM | inactive
EASNCFAIRHFENKFAVETLICLTALTLTMGDSM | inactive
EASNCFAIRHFENKFAVETLICLTAYIGESSCGD | 7.73
EASNCFAIRHFENKFAVETLICLTCSWVMGAGRC | 7.26

Same assay, conditions: random library (experiment): 2

Sequence | amyloid nucleation score
EASNCFAIRHFENKFAVETLICLSRRHGWDRLHS | 1.6
EASNCFAIRHFENKFAVETLICLSRSWYISGMAL | inactive
EASNCFAIRHFENKFAVETLICLSRVMSESKGVT | inactive
EASNCFAIRHFENKFAVETLICLSSC | 3.78
EASNCFAIRHFENKFAVETLICLSSHCHNYSCYA | inactive
EASNCFAIRHFENKFAVETLICLSSNVRF | 4.25
EASNCFAIRHFENKFAVETLICLSVFCTSMVRNC | inactive
EASNCFAIRHFENKFAVETLICLSVHDTALCIKS | inactive
EASNCFAIRHFENKFAVETLICLSVLKYG | 6.3
EASNCFAIRHFENKFAVETLICLSVLVCHRMLNC | 4.75
EASNCFAIRHFENKFAVETLICLSVSSYHHHPFL | 2.17
EASNCFAIRHFENKFAVETLICLSVT | inactive
EASNCFAIRHFENKFAVETLICLSVVGCFECFNV | 7.3
EASNCFAIRHFENKFAVETLICLSVVNHVFILCR | inactive
EASNCFAIRHFENKFAVETLICLSWFCFIVSIAS | 3.39
EASNCFAIRHFENKFAVETLICLSWNEYWTSVIG | 1.26
EASNCFAIRHFENKFAVETLICLSWTAEWQWLC | 6.25
EASNCFAIRHFENKFAVETLICLSYFGDGYVRHF | 5.44
EASNCFAIRHFENKFAVETLICLSYI | 5.31
EASNCFAIRHFENKFAVETLICLSYILSCSGTRA | 3.59
EASNCFAIRHFENKFAVETLICLSYSVGFFVDVC | 1.33
EASNCFAIRHFENKFAVETLICLSYVDC | 4.84
EASNCFAIRHFENKFAVETLICLSYYDPSVYVYR | 4.19
EASNCFAIRHFENKFAVETLICLT | inactive
EASNCFAIRHFENKFAVETLICLTCIVLDDLLSM | 6.35
EASNCFAIRHFENKFAVETLICLTDESGSSSGRH | inactive
EASNCFAIRHFENKFAVETLICLTDFWD | inactive

Same assay, conditions: random library (experiment): 3

Sequence | amyloid nucleation score
EASNCFAIRHFENKFAVETLICLSRLSLPASQL | inactive
EASNCFAIRHFENKFAVETLICLSRWQ | 4.47
EASNCFAIRHFENKFAVETLICLSSDDTFYSVLA | inactive
EASNCFAIRHFENKFAVETLICLSSICYDERAVG | 1.92
EASNCFAIRHFENKFAVETLICLSTGVLGSWGLR | inactive
EASNCFAIRHFENKFAVETLICLSTYNLLHISGE | inactive
EASNCFAIRHFENKFAVETLICLSVAITNRSSML | 1.13
EASNCFAIRHFENKFAVETLICLSVARMR | 2.61
EASNCFAIRHFENKFAVETLICLSVFRADRLLFL | 5.42
EASNCFAIRHFENKFAVETLICLSVRMV | inactive
EASNCFAIRHFENKFAVETLICLSVVTVRLGKVR | inactive
EASNCFAIRHFENKFAVETLICLSYCLCPRVARV | 6.69
EASNCFAIRHFENKFAVETLICLSYLRYRGSPAV | 0.727
EASNCFAIRHFENKFAVETLICLSYTRVN | inactive
EASNCFAIRHFENKFAVETLICLTCAMAG | 7.78
EASNCFAIRHFENKFAVETLICLTDATMSRNGDG | inactive
EASNCFAIRHFENKFAVETLICLTDLVACRGVVA | inactive
